Results as given in the supplement of paper PMC10986608.
The other results are listed elsewhere or left out. Many values rest on one well or one pass, so single values are uncertain.

Tested on: Candida albicans DPL-15
Assay: growth (OD600) after compound treatment (apparently relative to screen median) (relative growth (fraction; screen median 1.02)); DPL-15 is a caspofungin-resistant clinical isolate; higher = more fungal growth (less antifungal activity)
Conditions: 25 µM; RPMI 1640; 48 h; 30 °C

| Structure (SMILES) | growth |
| --- | --- |
| CC(C)OC(=O)[C@@H](Cc1ccccc1)N[C@H](/C=C/c1ccccc1)[C@@H](O)Cc1ccccc1 | 1.11 |
| COc1ccc(-c2[nH]c3cc(OC)cc(OC)c3c(=O)c2O)cc1 | active: 0.0446 |
| COc1ccc(N2C(=O)c3[nH]nc(CC(C)C)c3C2c2ncccc2OC)cc1 (configuration not stated) | 0.982 |
| COCC(OC)[C@]12c3ccccc3[C@H](c3ccccc31)[C@H]1[C@@H]2C(=O)N2CC=CC[C@]12O (some centres not stated) | 1.05 |
| COc1ccc(N2C(=O)C3=C(C(CC(C)C)=NCC(C)(C)N3)C2c2ccc(F)cc2)cc1 (configuration not stated) | 1.12 |
| C=CCNC1=NC(c2cccc(F)c2)C(C(=O)OC)=C(C)N1Cc1ccccc1 (configuration not stated) | 1.08 |
| COC(=O)[C@H]1[C@H](C(=O)OC)[C@@H](c2ccccc2)[C@@H]1c1ccccc1 | 0.895 |
| CO[C@H]1CCN(C(=O)c2c(O)cc(O)cc2Nc2cn(C)nc2C)C1 | 1.22 |
| COC(=O)C1=C(C)N(CCC(C)O)C(=O)N(C(C)=O)C1c1ccccc1 (configuration not stated) | 1.06 |
| O=C(c1c(O)cc(O)cc1Nc1ccnn1C1CCCCC1)N1Cc2cn[nH]c2C1 | 1.16 |
| C=CCc1c(O)c(C(=O)c2ccccc2)c2c(c1OC)CC(C)O2 (configuration not stated) | 0.976 |
| C=CCN1C(=O)C2=C(C(CC(C)C)=NCCN2)C1c1ccc2c(c1)OCO2 (configuration not stated) | 1 |
| COC(=O)C1=C(C(=O)OC)[C@@H](c2ccc(F)cc2)O[C@@H]1c1ccc(F)cc1 | 0.98 |
| O=C(NO)[C@H](Cc1ccccc1)n1nnc(-c2ccccc2)c1C#Cc1ccccc1 | 0.558 |
| COC(=O)C1=C(C(=O)OC)[C@@H](c2ccc(C(F)(F)F)cc2)O[C@H]1c1ccc(C)cc1 | 1.07 |
| C=CC[C@]12C[C@@]3(O[C@H](C4CCNCC4)N=C3C[C@H](c3ccc(OC)cc3)[C@H]1C)N(C)C2=O | 1.1 |
| CC1(C)O[C@@H]2[C@@H](CO[C@@]3(COS(=O)(=O)Nc4ccccc4)OC(C)(C)O[C@@H]23)O1 | 1.26 |
| COc1cc([C@H]2c3c(OC)c(O)c4oc5ccccc5c(=O)c4c3[C@@H]3C=C(C)CC(C)(C)[C@H]23)c2c(=O)c3ccccc3oc2c1O | 1.31 |
| COC(=O)c1cc2c(c3c4cc(F)ccc4n(S(=O)(=O)c4ccc(C)cc4)c13)C(=O)N(Cc1ccccc1OC)C2 | 1.12 |
| CC(=O)C1=C2C=CCCN2C(=O)NC1c1ccc2c(c1)CCO2 (configuration not stated) | 0.9 |
| O=C(OCc1ccccc1)c1cccc2c(=O)c3cccc(O)c3[nH]c12 | 0.971 |
| C[C@H]1[C@@H]2C[C@@]3(O[C@H](C4CCNCC4)N=C3C[C@@H]1c1ccccc1)N(Cc1cccnc1)C2=O | 1.2 |
| C=CCC1=C(OC)[C@@]2(CC=C)C[C@@H]3[C@@H](c4ccc([N+](=O)[O-])cc4)[C@](O)(c4ccccc4)[C@]3(C1=O)C2=O | 1.06 |
| C=C(C)C1[C@H](c2cc(O)c(O)c3oc4ccccc4c(=O)c23)C=C(C)C[C@H]1c1cc(O)c(O)c2oc3ccccc3c(=O)c12 (some centres not stated) | 0.382 |
| C=CCOC(=O)NC(c1ccc(F)c(F)c1)C(C(=O)COC)C(=O)OC (configuration not stated) | 0.985 |
| Cc1ccc(C2NC(=O)c3nn(-c4ccc(F)cc4)c(C(C)C)c32)cc1 (configuration not stated) | 1 |

| Structure (SMILES) | growth |
| --- | --- |
| COc1ccc(-c2cnn3c(N)c(-c4ccc(OC)nc4)cnc23)cc1 | 1.04 |
| CCOC(=O)c1ccc(N2C[C@@]3(O)CC[C@@H](O)[C@@H](OC)[C@@H]3[C@@](C)(O)[C@@H]2CC=C(C)C)cc1 | 1.02 |
| COC(=O)C1=C(C)N(Cc2ccc(Cl)cc2)C(=S)NC1c1ccc(Br)cc1 (configuration not stated) | 0.901 |
| COC(=O)C/C=C/[C@H](C)[C@H](NC(=O)C(F)(F)F)c1ccc2ccccc2c1 | 0.964 |
| COc1ccc(OC)c(CNCC2CCCN(CCc3ccccc3C)C2)c1 (configuration not stated) | 1.2 |
| c1ccc([C@H]2c3cc4c(cc3O[C@@H]3[C@H]5CC[C@H](C5)[C@H]23)OCO4)cc1 | 1.08 |
| CCOC(=O)C1=NO[C@@]2(C=C(Br)C3(OCCCO3)[C@H]3O[C@H]32)C1 | 1.01 |
| CC(C)CC(=O)c1c(O)cc(O)cc1O | 1 |
| COc1ccc(N2C(=O)c3[nH]nc(CC(C)C)c3C2c2ccccc2Br)c(OC)c1 (configuration not stated) | 1.17 |
| COCCNC1=NC(c2ccc(Cl)cc2)C(C(=O)OC)=C(C)N1Cc1cccc(C(F)(F)F)c1 (configuration not stated) | 0.892 |
| COc1ccc(-c2[nH]c3ccccc3c(=O)c2O)cc1 | active: 0.0638 |
| O=S(=O)(c1cccs1)N1CCCc2nc(-c3ccc(F)cc3)ccc21 | 0.917 |
| Cc1ccccc1S(=O)(=O)N1CCCc2nc(-c3ccc(F)cc3)ccc21 | 0.907 |
| COc1ccc(Cn2nc(C)cc2Nc2cc(O)cc(O)c2C(=O)N2Cc3cccc(F)c3C2)cc1 | 1.01 |
| CC1=CC2=C[C@@H](OC(=O)N(C(C)C)C(C)C)C[C@@H](C)[C@]2(O)[C@@H]2CCC3(OCCO3)[C@@]2(O[Si](C)(C)C)C1 | 0.766 |
| Cc1ccc(C2C3=C(NCCN=C3CC(C)C)C(=O)N2Cc2ccccc2)cc1 (configuration not stated) | 1.06 |
| CS(=O)(=O)Oc1c(C[C@@]23CCCCC2=Nc2ccccc23)occc1=O | 0.923 |
| CC(C)CC1=NCCN(C)C2=C1C(c1ccc3c(c1)OCO3)N(c1ccccc1)C2=O (configuration not stated) | 0.924 |
| COc1ccc(C2=CC3=C(Br)C(=O)C(C)(O)C(=O)C3=CO2)cc1 (configuration not stated) | 0.965 |
| O=C(c1ccccc1)c1c(O)cc(O)cc1O | 1.06 |
| CC(=O)[C@@H]1C[C@@H]2C=C(C(C)C)[C@H]1C(=O)[C@]2(C)O | 0.992 |
| Fc1ccc([C@H]2OC[C@H]3[C@@H]2CO[C@H]3c2ccc(F)cc2)cc1 | 1.08 |
| COC(=O)[C@@H]1[C@@H](c2ccccc2)[C@]2(c3ccc(OC)cc3)Oc3cc(OC)cc(OC)c3[C@@]23N=C(c2ccccc2)N[C@@]13O | 0.86 |
| Cc1ccc(S(=O)(=O)N/N=C/c2cccc(C(=O)O)c2)cc1 | 1.16 |
| O=C(O)c1cccc2c(=O)c3cccc(OCc4ccccc4)c3[nH]c12 | 0.971 |
| CCCCCOS(=O)(=O)NCC(F)(F)F | 1.06 |

| Structure (SMILES) | growth |
| --- | --- |
| CC1(C)C/C2=C/c3cccc(n3)C(=O)N3C[C@H](O)C[C@H]3C(=O)N(C2)C1 | 0.989 |
| CO[C@@H]1[C@H](O)CC[C@]2(O)CN(CCc3cccs3)[C@@H](CC=C(C)C)[C@](C)(O)[C@@H]12 | 0.953 |
| COC(=O)C1=C(C)N(Cc2ccc(C(F)(F)F)cc2)C(NCc2ccc(C(F)(F)F)cc2)=NC1c1ccc(Cl)cc1 (configuration not stated) | 0.876 |
| COC(=O)[C@@H]1[C@H](C(=O)OC)[C@@H](c2ccccc2)[C@H]1c1ccccc1 | 1.02 |
| COC(=O)C(C(=O)OC)C(NC(=O)OCc1ccccc1)c1ccccc1 (configuration not stated) | 1.21 |
| Cc1ccc(S(=O)(=O)N2CCC3(C)C(=C(C#Cc4ccccn4)c4ccccc43)C2)cc1 (configuration not stated) | 1.18 |
| C#CCn1nc2c(c1CC(C)C)C(c1ccc(F)cc1)N(c1ccc(OC)cc1)C2=O (configuration not stated) | 0.995 |
| CCCCCCNS(=O)(=O)N(CC)C(=O)OC(C)(C)C | 1.12 |
| COC(=O)C1=C(C)N(Cc2ccccc2)C(NCc2ccc(OC)cc2)=NC1c1ccccc1 (configuration not stated) | 1.02 |
| CCOCCOCCN(OC)C(=O)[C@H]1[C@@H](O)[C@@]2(O)c3c(OC)cc(OC)cc3O[C@@]2(c2ccc(OC)cc2)[C@@H]1c1ccccc1 | 0.957 |
| COc1ccc(Cn2nc(C(C)C)cc2Nc2cc(O)cc(O)c2C(=O)N2Cc3cn[nH]c3C2)cc1 | 1.11 |
| COC[C@H]1O[C@H](c2ccccc2)C=C[C@@H]1OCC#Cc1ccccc1N | 0.848 |
| COCc1n[nH]c2c1C(c1ccc(F)cc1)N(c1ccc(OC)cc1)C2=O (configuration not stated) | 1.16 |
| COc1ccc(Cc2cc(C)c(O)c(C)c2OC)c(O)c1C | 0.872 |
| COc1ccc(-c2nc3cc(-c4ccc(F)cc4)ccc3n2C)cc1 | 0.984 |
| C=CCN1C(=O)C2=C(C(C(C)C)=NCCN2C)C1c1ccc(C)cc1 (configuration not stated) | 0.988 |
| COC(=O)c1[nH]c2ccccc2c1[C@]12CCN(C(=O)C3CCCO3)[C@H]1Nc1ccccc12 (some centres not stated) | 0.917 |
| C=C(C)[C@@H]1CC2=C(OC)C(CC=C(C)C)(CC=C(C)C)C(=O)C(C(=O)c3ccccc3)=C2O1 | 1.28 |
| COc1ccc(-c2ccc3c(n2)CCCN3S(=O)(=O)c2ccccc2C)cc1 | 0.914 |
| CCCC[C@H]1Cc2ccc(F)cc2[C@H]2[C@H]3C(=O)N(c4ccc(OC)cc4)C(=O)[C@H]3[C@H](C(=O)OC)N12 | 0.8 |
| CN1C(=O)[C@@]2(O[C@H]3C=CC=CN3C3=C2C(=O)CCC3)c2cc([N+](=O)[O-])ccc21 | 1.02 |
| Cc1ccc(S(=O)(=O)n2cccc2[C@H]2[C@@H](C)C[C@H]3CC(=O)N[C@@H](Cc4c[nH]c5ccccc45)C(=O)N32)cc1 | 1.12 |
| COC(=O)c1c(-c2ccc(OC)c(OC)c2)oc(-c2ccc3c(c2)OCO3)c1C(=O)OC | 1.21 |
| COC(=O)c1nnc(C(=O)OC)c2c1[nH]c1ccc(C#N)cc12 | 1.2 |
| COc1ccc(CC2(c3ccccc3)Oc3ccccc3-c3nc4ccccc4nc32)cc1 (configuration not stated) | 1.07 |
